In the supplement of paper PMC10037445:
The full ranking holds about 2,900 compounds; the median of “NF-kB SEAP reporter activity, fold change vs agonist alone” is about 0.99, and the highest 2% start at about 2.6. The list shows a part of the results.

Legend:
RAW-Dual [1] = assay: NF-kB SEAP reporter activity, fold change vs agonist alone; cytotoxicity flag (confluency mask): not cytotoxic; higher = enhanced NF-kB activity
Procedure, shortened: (§1)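 Reporter activity is given as fold change relative to agonist-alone wells. To measure it, 50 nL of library stock was pin-tooled onto RAW-Dual macrophages (50,000 cells/well, DMEM, 384-well plates), a PRR agonist followed 1 h later, and cells stayed at 37 °C, 5% CO2. Twenty hours on, supernatant was assayed for IRF (QuantiLuc luminescence) and NF-κB (QuantiBlue, 620 nm absorbance), and wells under 70% of agonist-control IncuCyte confluency in both mask sets were marked cytotoxic.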

RAW-Dual [2] = assay: NF-kB SEAP reporter activity, fold change vs agonist alone; higher = enhanced NF-kB activity; conditions: library stock concentration (final ~1000-fold dilution): 10 mM
Procedure, shortened: as §1

RAW-Dual [3] = assay: NF-kB SEAP reporter activity, fold change vs agonist alone; cytotoxicity flag (confluency mask): cytotoxic (confluency <70% of control); higher = enhanced NF-kB activity
Procedure, shortened: as §1

[4] = agonist: ODN 1826 (TLR9) 0.5 ug/mL
[5] = agonist: Pam2CSK4 (TLR2/6) 0.1 ug/mL
[6] = agonist: Pam3CSK4 (TLR2/1) 0.1 ug/mL
[7] = cytotoxicity flag (confluency mask): not cytotoxic, agonist: Imiquimod (TLR7) […]
[8] = cytotoxicity flag (confluency mask): not cytotoxic, agonist: MPLA (TLR4) […]

## O=c1n(CCCN2CCN(c3cccc(Cl)c3)CC2)nc2ccccn12 (library stock concentration (final ~1000-fold dilution): 10 mM)
RAW-Dual [1]; agonist: LPS (TLR4) 0.1 ug/mL
  NF-kB SEAP reporter activity: 2.72

## Cc1ccccc1C(C(=O)NC1CCCCC1)N(C(=O)Cn1ccnc1C)c1cccc(F)c1 (centres undefined) (library stock concentration (final ~1000-fold dilution): 10 mM)
RAW-Dual [1]; agonist: LPS (TLR4) 0.1 ug/mL
  NF-kB SEAP reporter activity: 1.37
RAW-Dual [1]; [4]
  NF-kB SEAP reporter activity: 1.02
RAW-Dual [1]; [5]
  NF-kB SEAP reporter activity: 0.953
RAW-Dual [1]; [6]
  NF-kB SEAP reporter activity: 0.848

## Cc1ccccc1C(C(=O)NC1CCCCC1)N(C(=O)Cn1ccnc1C)c1cccc(F)c1 (centres undefined)
RAW-Dual [2]; [7]
  NF-kB SEAP reporter activity: 0.967
RAW-Dual [2]; [8]
  NF-kB SEAP reporter activity: 1.01

## CC(C)CN(CC(O)C(Cc1ccccc1)NC(=O)OC1CCOC1)S(=O)(=O)c1ccc(N)cc1 (centres undefined) (library stock concentration (final ~1000-fold dilution): 10 mM)
RAW-Dual [1]; agonist: LPS (TLR4) 0.1 ug/mL
  NF-kB SEAP reporter activity: 1.41
RAW-Dual [1]; [4]
  NF-kB SEAP reporter activity: 1.74
RAW-Dual [1]; [5]
  NF-kB SEAP reporter activity: 1.45
RAW-Dual [1]; [6]
  NF-kB SEAP reporter activity: 1.32

## CC(C)CN(CC(O)C(Cc1ccccc1)NC(=O)OC1CCOC1)S(=O)(=O)c1ccc(N)cc1 (centres undefined)
RAW-Dual [2]; [7]
  NF-kB SEAP reporter activity: 1.3
RAW-Dual [2]; [8]
  NF-kB SEAP reporter activity: 1.6

## CC1COC(Nc2ccc3ncnc(Nc4ccc(OCc5nccs5)c(Cl)c4)c3c2)=N1 (centres undefined) (library stock concentration (final ~1000-fold dilution): 10 mM)
RAW-Dual [1]; agonist: LPS (TLR4) 0.1 ug/mL
  NF-kB SEAP reporter activity: 0.991
RAW-Dual [1]; [4]
  NF-kB SEAP reporter activity: 0.507
RAW-Dual [1]; [5]
  NF-kB SEAP reporter activity: 0.602
RAW-Dual [1]; [6]
  NF-kB SEAP reporter activity: 0.911

## CC1COC(Nc2ccc3ncnc(Nc4ccc(OCc5nccs5)c(Cl)c4)c3c2)=N1 (centres undefined)
RAW-Dual [2]; [7]
  NF-kB SEAP reporter activity: 1.28
RAW-Dual [2]; [8]
  NF-kB SEAP reporter activity: 1.03

## C[C@@H]1O[C@@H](O[C@H]2[C@H](OC(=O)[C@]34CCC(C)(C)C[C@H]3C3=CC[C@@H]5[C@@]6(C)C[C@H](O)[C@H](O[C@@H]7O[C@H](CO)[C@@H](O)[C@H](O)[C@H]7O)[C@@](C)(CO)[C@@H]6CC[C@@]5(C)[C@]3(C)CC4)O[C@H](CO)[C@@H](O)[C@@H]2O)[C@H](O)[C@H](O)[C@H]1O[C@@H]1OC[C@@H](O)[C@H](O)[C@H]1O
RAW-Dual [2]; [7]
  NF-kB SEAP reporter activity: 0.83
RAW-Dual [2]; [8]
  NF-kB SEAP reporter activity: 1.01

## C[C@@H]1O[C@@H](O[C@H]2[C@H](OC(=O)[C@]34CCC(C)(C)C[C@H]3C3=CC[C@@H]5[C@@]6(C)C[C@H](O)[C@H](O[C@@H]7O[C@H](CO)[C@@H](O)[C@H](O)[C@H]7O)[C@@](C)(CO)[C@@H]6CC[C@@]5(C)[C@]3(C)CC4)O[C@H](CO)[C@@H](O)[C@@H]2O)[C@H](O)[C@H](O)[C@H]1O[C@@H]1OC[C@@H](O)[C@H](O)[C@H]1O (library stock concentration (final ~1000-fold dilution): 10 mM)
RAW-Dual [1]; agonist: LPS (TLR4) 0.1 ug/mL
  NF-kB SEAP reporter activity: 1.11
RAW-Dual [1]; [4]
  NF-kB SEAP reporter activity: 0.984
RAW-Dual [1]; [5]
  NF-kB SEAP reporter activity: 1.04
RAW-Dual [1]; [6]
  NF-kB SEAP reporter activity: 1.19

## COc1cc2c(cc1OC(C)C)C(c1ccc(Cl)cc1)N(c1ccc(N(C)CC3CCC(N4CCN(C)C(=O)C4)CC3)cc1)C(=O)C2 (centres undefined)
RAW-Dual [2]; [7]
  NF-kB SEAP reporter activity: 0.648
RAW-Dual [2]; [8]
  NF-kB SEAP reporter activity: 0.853

## COc1cc2c(cc1OC(C)C)C(c1ccc(Cl)cc1)N(c1ccc(N(C)CC3CCC(N4CCN(C)C(=O)C4)CC3)cc1)C(=O)C2 (centres undefined) (library stock concentration (final ~1000-fold dilution): 10 mM)
RAW-Dual [1]; agonist: LPS (TLR4) 0.1 ug/mL
  NF-kB SEAP reporter activity: 0.702
RAW-Dual [1]; [4]
  NF-kB SEAP reporter activity: 0.529
RAW-Dual [1]; [5]
  NF-kB SEAP reporter activity: 0.211
RAW-Dual [1]; [6]
  NF-kB SEAP reporter activity: 0.373

## COc1cc2ncnc(Nc3cccc(Cl)c3)c2cc1OC
RAW-Dual [2]; cytotoxicity flag (confluency mask): cytotoxic (confluency <70% of control), agonist: Imiquimod (TLR7) […]
  NF-kB SEAP reporter activity: 1.58
RAW-Dual [2]; cytotoxicity flag (confluency mask): cytotoxic (confluency <70% of control), agonist: MPLA (TLR4) […]
  NF-kB SEAP reporter activity: 1.42

## COc1cc2ncnc(Nc3cccc(Cl)c3)c2cc1OC (library stock concentration (final ~1000-fold dilution): 10 mM)
RAW-Dual [3]; agonist: LPS (TLR4) 0.1 ug/mL
  NF-kB SEAP reporter activity: 1.59
RAW-Dual [3]; [4]
  NF-kB SEAP reporter activity: 0.692
RAW-Dual [3]; [5]
  NF-kB SEAP reporter activity: 0.764
RAW-Dual [3]; [6]
  NF-kB SEAP reporter activity: 1.02

## O=c1oc2cc(O)ccc2s1
RAW-Dual [2]; [7]
  NF-kB SEAP reporter activity: 0.953
RAW-Dual [2]; [8]
  NF-kB SEAP reporter activity: 1.05

## O=c1oc2cc(O)ccc2s1 (library stock concentration (final ~1000-fold dilution): 10 mM)
RAW-Dual [1]; agonist: LPS (TLR4) 0.1 ug/mL
  NF-kB SEAP reporter activity: 0.896
RAW-Dual [1]; [4]
  NF-kB SEAP reporter activity: 1
RAW-Dual [1]; [5]
  NF-kB SEAP reporter activity: 1.36
RAW-Dual [1]; [6]
  NF-kB SEAP reporter activity: 0.983

## O=C(O)c1ccccc1O
RAW-Dual [2]; [7]
  NF-kB SEAP reporter activity: 0.851
RAW-Dual [2]; [8]
  NF-kB SEAP reporter activity: 0.999

## O=C(O)c1ccccc1O (library stock concentration (final ~1000-fold dilution): 10 mM)
RAW-Dual [1]; agonist: LPS (TLR4) 0.1 ug/mL
  NF-kB SEAP reporter activity: 1.08
RAW-Dual [1]; [4]
  NF-kB SEAP reporter activity: 0.992
RAW-Dual [1]; [5]
  NF-kB SEAP reporter activity: 0.923
RAW-Dual [1]; [6]
  NF-kB SEAP reporter activity: 1.11

## CCOc1ccc2nc(S(N)(=O)=O)sc2c1 (library stock concentration (final ~1000-fold dilution): 10 mM)
RAW-Dual [1]; agonist: LPS (TLR4) 0.1 ug/mL
  NF-kB SEAP reporter activity: 1.12
RAW-Dual [1]; [4]
  NF-kB SEAP reporter activity: 0.784
RAW-Dual [1]; [5]
  NF-kB SEAP reporter activity: 1.03
RAW-Dual [1]; [6]
  NF-kB SEAP reporter activity: 1.03

## CCOc1ccc2nc(S(N)(=O)=O)sc2c1
RAW-Dual [2]; [7]
  NF-kB SEAP reporter activity: 0.885
RAW-Dual [2]; [8]
  NF-kB SEAP reporter activity: 0.966

## COC(=O)c1ccc(O)c(OC)c1 (library stock concentration (final ~1000-fold dilution): 10 mM)
RAW-Dual [1]; agonist: LPS (TLR4) 0.1 ug/mL
  NF-kB SEAP reporter activity: 1.37
RAW-Dual [1]; [4]
  NF-kB SEAP reporter activity: 1.19
RAW-Dual [1]; [5]
  NF-kB SEAP reporter activity: 1.22
RAW-Dual [1]; [6]
  NF-kB SEAP reporter activity: 1.02

## COC(=O)c1ccc(O)c(OC)c1
RAW-Dual [2]; [7]
  NF-kB SEAP reporter activity: 1.34
RAW-Dual [2]; [8]
  NF-kB SEAP reporter activity: 1.11

## CS(=O)(=O)c1ccc(-c2nnc(/C=C/c3nnc(-c4ccc(C#N)cc4)o3)n2-c2ccccc2Cl)nc1
RAW-Dual [2]; [7]
  NF-kB SEAP reporter activity: 1.01
RAW-Dual [2]; [8]
  NF-kB SEAP reporter activity: 0.792

## CS(=O)(=O)c1ccc(-c2nnc(/C=C/c3nnc(-c4ccc(C#N)cc4)o3)n2-c2ccccc2Cl)nc1 (library stock concentration (final ~1000-fold dilution): 10 mM)
RAW-Dual [1]; agonist: LPS (TLR4) 0.1 ug/mL
  NF-kB SEAP reporter activity: 0.757
RAW-Dual [1]; [4]
  NF-kB SEAP reporter activity: 0.833
RAW-Dual [1]; [5]
  NF-kB SEAP reporter activity: 0.999
RAW-Dual [1]; [6]
  NF-kB SEAP reporter activity: 1.66

## CN(C)CCC(c1ccc(Cl)cc1)c1ccccn1.O=C(O)/C=C\C(=O)O (centres undefined)
RAW-Dual [2]; [7]
  NF-kB SEAP reporter activity: 1.09
RAW-Dual [2]; [8]
  NF-kB SEAP reporter activity: 0.839

## CN(C)CCC(c1ccc(Cl)cc1)c1ccccn1.O=C(O)/C=C\C(=O)O (centres undefined) (library stock concentration (final ~1000-fold dilution): 10 mM)
RAW-Dual [1]; agonist: LPS (TLR4) 0.1 ug/mL
  NF-kB SEAP reporter activity: 1.16
RAW-Dual [1]; [4]
  NF-kB SEAP reporter activity: 0.822
RAW-Dual [1]; [5]
  NF-kB SEAP reporter activity: 1.03
RAW-Dual [1]; [6]
  NF-kB SEAP reporter activity: 1.14

## Cc1c(CN2CCC(Nc3ncnc4sc(CC(F)(F)F)cc34)CC2)ccc2[nH]c(C#N)cc12
RAW-Dual [2]; [7]
  NF-kB SEAP reporter activity: 0.878
RAW-Dual [2]; [8]
  NF-kB SEAP reporter activity: 0.915

## Cc1c(CN2CCC(Nc3ncnc4sc(CC(F)(F)F)cc34)CC2)ccc2[nH]c(C#N)cc12 (library stock concentration (final ~1000-fold dilution): 10 mM)
RAW-Dual [1]; agonist: LPS (TLR4) 0.1 ug/mL
  NF-kB SEAP reporter activity: 1.32
RAW-Dual [1]; [4]
  NF-kB SEAP reporter activity: 0.176
RAW-Dual [1]; [5]
  NF-kB SEAP reporter activity: 0.631
RAW-Dual [1]; [6]
  NF-kB SEAP reporter activity: 0.575
